# Whole data set: some 33,000 sequences, median “E-score (-0.5 to 0.5)” near -0.036, cut for the highest 2% near 0.37. Some of the results follow.
# Molecular target: T1, Yer064c (UniProt P40041)
# T1 sequence: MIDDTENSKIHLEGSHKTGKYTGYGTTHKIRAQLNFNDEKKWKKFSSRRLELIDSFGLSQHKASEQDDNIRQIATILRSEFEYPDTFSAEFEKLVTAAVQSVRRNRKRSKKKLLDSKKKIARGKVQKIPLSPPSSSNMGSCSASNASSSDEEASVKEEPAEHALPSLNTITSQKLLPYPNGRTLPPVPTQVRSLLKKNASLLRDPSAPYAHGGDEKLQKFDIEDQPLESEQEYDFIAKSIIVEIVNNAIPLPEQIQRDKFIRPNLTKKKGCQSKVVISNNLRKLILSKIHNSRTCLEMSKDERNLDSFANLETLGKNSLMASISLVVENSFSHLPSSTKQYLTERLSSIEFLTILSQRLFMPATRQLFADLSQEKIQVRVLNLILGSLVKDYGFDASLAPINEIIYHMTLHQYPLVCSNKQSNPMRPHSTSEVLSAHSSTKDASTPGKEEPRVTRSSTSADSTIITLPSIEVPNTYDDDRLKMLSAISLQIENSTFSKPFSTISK
# Experiment: PBM E-score (8-mer binding enrichment) (E-score (-0.5 to 0.5)); higher = stronger / more preferred TF binding; most listed sequences are background and not binding sites
# Details: protein concentration: 200 nM; construct: GST-full length
# In short: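 Yeast transcription factors carrying a GST tag, as full-length proteins or DNA-binding domains, were produced by PURExpress in vitro transcription/translation. About 100-200 nM protein was applied to universal all-10-mer Agilent arrays, double-stranded by primer extension on fresh or once-stripped slides. Bound protein was detected with fluorescent anti-GST, and scans were normalised with masliner. The Universal PBM Analysis Suite gave each ungapped eight-base word, pooled with its reverse complement, an E-score, a modified Wilcoxon-Mann-Whitney statistic.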
row,Sequence,PBM E-score
1,CACGTGCA,-0.227
2,CTTAGCAA,-0.112
3,GAAATTCA,-0.113
4,ACTGATTC,0.319
5,GACATAAC,0.0129
6,AGATTTTG,0.0421
7,CACAGAGC,-0.0104
8,AGTGTAGG,0.0359
9,GGGCTACA,-0.0915
10,TGCGGACA,-0.121
11,ACTCAAGT,0.366
12,GCGCTTAC,-0.156
13,AACAACAT,-0.0999
14,CACCCGCA,-0.105
15,CCTTAATC,0.295
16,CGCTGCTC,-0.243
17,AAATTCGC,-0.0229
18,ATCGCGTG,0.0166
19,CAATACAG,-0.0502
20,CCGACAGG,-0.158
21,CTACAATC,0.172
22,CGGATATA,0.0645
23,CTTTGGAA,0.019
24,CAACGCCC,-0.322
25,CGGCTTGA,0.115

row,Sequence,PBM E-score
1,TAAACAAA,-0.0548
2,CCAGCACC,-0.231
3,CCTTACCA,-0.0939
4,ACCACCCC,-0.139
5,AATGTTAT,-0.011
6,ACTTAAAG,0.00013
7,CTGTTAAC,0.00673
8,CACCTCTA,-0.0715
9,CGATCAGC,-0.19
10,AAGGTTAG,-0.126
11,GGCCAGTA,-0.148
12,AGATCCCG,-0.0163
13,CGTATTTA,-0.0843
14,CAGGGCCC,-0.085
15,ACTCTCAA,0.257
16,AGGCTACA,0.0571
17,GGCCTCCC,-0.39
18,ACTCCCAT,0.201
19,CTTCTGGA,-0.116
20,AGAATTCA,-0.079
21,ACTGCAGT,0.25
22,TGCTTCCA,-0.182
23,AGGGCCAG,-0.139
24,ACACATTG,0.0326
25,CGCTGTAA,0.11

row,Sequence,PBM E-score
1,ACGAACAT,0.0393
2,ATTTTCGG,0.147
3,TTATACAA,0.0882
4,ATTGACTG,0.275
5,CCGGGACG,-0.357
6,CATCTCCA,-0.07
7,ATAAGGAA,-0.134
8,GGGATTAA,0.166
9,GACATGCC,-0.101
10,AGAAATCT,-0.044
11,GTCATCTA,0.35
12,GTGTTGCA,-0.0318
13,AGCCCTAC,-0.205
14,CAATAGCG,-0.227
15,CTATTAAC,0.0536
16,TGGGAGAA,-0.171
17,ACATCCGC,-0.134
18,ATCAGCCG,0.223
19,ACTCCCAG,0.122
20,ACAGGAGA,-0.0335
21,CATCCGAC,0.121
22,ACAGGATG,-0.068
23,CTCCGTGC,-0.156
24,ACAGGGAC,-0.0116
25,AGATAGAA,-0.0345

row,Sequence,PBM E-score
1,ATCAACAG,0.196
2,CTTATCGA,0.147
3,TAAACCCA,0.00079
4,ACACTATA,-0.058
5,CATGAGGC,-0.17
6,GTCTATAA,0.117
7,AGCTCCAT,-0.174
8,GGTATATA,-0.0295
9,AAGATAGG,-0.142
10,ATTGGGGC,-0.178
11,AAGGCCCG,-0.347
12,AGCATATG,-0.154
13,ACAAATCG,-0.0691
14,GCGATGCC,-0.367
15,GTGAGCAA,0.0822
16,CCCCTCAC,-0.0378
17,GAGTCAGC,0.48
18,CCTAGGAC,-0.0387
19,GGAACTTA,-0.0956
20,AGACATGA,0.289
21,GCTTCTGA,0.0255
22,GCTACGCA,-0.145
23,ATTCACAC,0.148
24,AAGAGCGT,-0.163
25,AAGCGGGC,-0.196

row,Sequence,PBM E-score
1,ATACCTCG,0.0648
2,CCTATCGC,-0.0141
3,AGACGGCA,-0.128
4,ATGGCGCC,-0.173
5,AATCGCGA,0.143
6,TATGTCAA,-0.037
7,CCGATCCG,-0.158
8,CCATAAGC,-0.132
9,AAGTCGCA,0.257
10,GGCAAGGA,-0.132
11,CAGCACTG,-0.241
12,AAGAGAGC,-0.303
13,CCGGTAAA,-0.107
14,ACTCGACC,0.163
15,ATAGATAA,0.00235
16,CACTGTAG,0.114
17,CCACAGGC,-0.119
18,GCCACAAC,-0.125
19,AGTACCGA,-0.0648
20,AGAGCGCC,-0.124
21,GATTGACC,0.133
22,ACGAGCCA,0.195
23,AAGCCCGC,-0.329
24,AGCCATCG,0.229
25,GACTGATC,0.314

row,Sequence,PBM E-score
1,AGTCTAAT,0.156
2,AGGGTCTG,-0.181
3,GATTGACA,0.261
4,CCAAAGAA,-0.0797
5,AGACATTC,0.118
6,CCTGTGCA,-0.146
7,CAGACCAG,-0.0215
8,ATAACTTA,0.15
9,GAGTTGTA,0.0614
10,CCCCGCCG,-0.246
11,CGACTGAG,0.241
12,AGTGGAAT,0.00193
13,CATTAACA,0.106
14,CATCAGTA,0.0609
15,AGCTGAAT,-0.00359
16,CCTAACGC,-0.104
17,AACCGAGG,-0.0732
18,CGTTCCTC,-0.262
19,CACTGTTA,-0.175
20,CATTGTAA,0.0341
21,ACCGCTGC,-0.321
22,AACCGCAG,-0.0549
23,CATCATGA,0.294
24,ACGACTCC,0.423
25,ATAACCTG,-0.0996

row,Sequence,PBM E-score
1,ATGATTGA,0.423
2,ACAGCTGC,0.0661
3,ACCACACA,-0.051
4,CTGACCTA,0.226
5,GGAGGGCC,-0.322
6,ATATGGTC,-0.091
7,CCACGCAC,-0.162
8,CTCGCTTA,0.0025
9,ATCTGCCA,-0.162
10,AAATTGTT,0.00195
11,TGACAACA,-0.0584
12,ACTAGGCC,-0.0909
13,AGAGGTGG,-0.273
14,AGTAAAGG,0.0771
15,GAGCAGAC,-0.145
16,CACGCGAG,0.17
17,CACATGCC,0.0703
18,CTTGGGGA,-0.0821
19,ACTCGCAT,0.213
20,GTTAGATA,0.0205
21,CCGTAAGG,-0.286
22,ACTGAATG,0.011
23,CGCCTACG,-0.0445
24,GGAACCTA,-0.242
25,ATGAACGA,-0.138

row,Sequence,PBM E-score
1,ATTAGGCG,0.00056
2,AATAATCT,0.201
3,TGACCAAA,0.027
4,CCCTAGGG,0.0143
5,ATGACATC,-0.0791
6,CACCTCAA,0.0525
7,AAAGACCA,-0.029
8,CTTGCCAA,0.0295
9,TTCAGGAA,0.0545
10,CAGCTCCC,-0.0873
11,GGTGACGA,-0.0961
12,GAACCTCC,-0.247
13,ATTAAACA,0.23
14,AATATCTA,-0.0454
15,CATCGATA,0.0372
16,ACACCCCC,-0.0828
17,CGCCGACG,0.0193
18,CAGCTTCC,-0.237
19,GGCGCCAC,-0.167
20,GTGGGAAC,-0.183
21,CATCGGGC,-0.256
22,AAAGTAAG,0.0165
23,TGGATACA,0.042
24,CTAAACAC,0.107
25,GCCAGCAA,-0.238

row,Sequence,PBM E-score
1,CCCGTTGA,0.0939
2,GGCGGACC,-0.297
3,ACGACTAA,0.438
4,CAAGGCCA,-0.197
5,CGTGAGGC,-0.298
6,CACCTCAG,-0.0754
7,AGGGATCG,-0.137
8,ACCGCCCT,-0.174
9,CAGATTGC,-0.117
10,ACGACTAT,0.401
11,CTCATCCC,0.048
12,GGCGGGAA,-0.353
13,ATTTAGTC,0.444
14,GCCAACTA,0.0439
15,CGAAAAGC,-0.166
16,CAGAGGAA,-0.108
17,CCCGTGTC,-0.17
18,CCATTCGC,-0.0756
19,TGTCGTAA,-0.0131

# — the supplement of paper PMC3334620
